In the supplement of paper PMC11417369:
± gives the standard deviation of the averaged measurements. This is one part of the list.

What follows are sequences tested on PfAP2-I AP2 domain 3 (GST-tagged) (assay: gcPBM binding intensity (ln(normalized median fluorescence intensity)); higher = stronger DNA binding).
Summary of the method: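 Binding intensity is the highest Masliner-normalised natural-log median intensity over replicate spots in either probe orientation. To obtain it, GST-tagged P. falciparum DNA-binding domains made in E. coli were incubated for 1 h on an Agilent 4 × 180k array of primer-extended double-stranded 36-bp intergenic genomic probes plus negative controls. Detection used Alexa488 anti-GST antibody with scanning at 488 nm.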

Point of comparison: “AAAAAAAAAAGACACACACACAAAAAAAGATATATA [CACACA_site6645]”, “gcPBM binding intensity (ln)” value 7.68 ± 0.59. Against it:
- AATGATAAATAAAAAGCATGCAACAAATAAAAATAA [TGCATGCA_site453] — within error, 7.94 ± 0.76
- GTTTTTTTGTTTTAAAGTACTTAAAAAAAAAATATA [XGTACX_site6998] — within error, 8 ± 0.13
- AATGTTTATTTTGTTTGTACATAAAATGAATAAAAT [XGTACX_site1456] — within error, 7.86 ± 0.35
- TATATATATTTATGCACACAAAATATATTATAGAAT [CACACA_site3740] — higher, 9.99 ± 0.4
- GTTATATATTTTTATGCATGCATTTTTAAATATATA [TGCATGCA_site175] — within error, 8.1 ± 0.63
- TTATTCCTTTTCCTTTTTTTTTTTTAACCAAAAAAA [CACACA_negctrl_site309] — within error, 7.86 ± 0.4
- ATACATAAATTTTGTACACACAAAAAAAAAAAAGCT [CACACA_site1351] — within error, 8.04 ± 0.58
- TTTATATATATAAATATGTAGATAACAATATTCTGA [TGCATGCA_negctrl_site554] — within error, 7.38 ± 0.45
- AAAATATACATATATGCATGCATATAAATAAAAAAA [TGCATGCA_site812] — within error, 7.86 ± 0.75
- ATAAAAATATTACGCACACACAAACTTATTCATTAT [CACACA_site1969] — higher, 9.22 ± 0.028
- TTGTTCAAACAAAAAATAAAATAATTGAAAATAAAA [CACACA_negctrl_site812] — within error, 7.43 ± 0.71
- GTAACTTTATTATACTGTACTATTATATAAGCACAC [XGTACX_site2859] — higher, 8.95 ± 0.23
- ATTACAATATATACGTGTACATATTACCACCGCTAC [XGTACX_site2308] — within error, 8.46 ± 0.7
- TGTAAAAAATTTAACACACACATATATATATATATA [CACACA_site2585] — higher, 9.55 ± 0.4
- TAGAATAAGATAGATATACACACCATTATAAATATA [CACACA_site2500] — within error, 7.67 ± 0.38
- TTACAAAATAAGAGGCACAAACACAAAAAAAAATAA [CACACA_negctrl_site574] — within error, 7.97 ± 0.58
- GCACACATATAATAATGTACATATATATATTTAAAA [XGTACX_site4561] — within error, 7.96 ± 0.44
- TATTGATTATTTGAATGTACTTATTATATTAAATAT [XGTACX_site1304] — within error, 7.57 ± 0.13
- ACACGCACATATATATAAATATATATATATATAAAT [CACACA_negctrl_site1781] — within error, 7.75 ± 0.26
- AATAAAAATATTTTTACATGCAAATGTTATATATTT [TGCATGCA_site1056] — within error, 7.64 ± 0.78
- AAAAAAAATTATTATGAACACACATTTATTATATTC [CACACA_site8443] — within error, 7.3 ± 0.56
- ATTCTACACAGACATACACACATATATATATATATA [CACACA_site5826] — higher, 9.34 ± 0.56
- TAATATGATCTTAATAGTACTTTATTAATAATAACC [XGTACX_site1953] — within error, 7.59 ± 0.49
- TATATATGTTTATGTAGTACTATATATCCCTTTCTT [XGTACX_site7049] — within error, 7.61 ± 0.53
- AAAAATAAAATGGACACACACGTTCAAATTTAGATT [CACACA_site5186] — within error, 7.65 ± 0.71
- GGATGCACACAAAAGGGTACATAAGAAAAAAACAGG [XGTACX_site8570] — within error, 8.61 ± 0.54
- CACGCACAGATATATACACACTTTTATTTAAATAAC [CACACA_site6852] — within error, 8.06 ± 0.28
- AAATATATATATAGTTGTACATATATCGTATATATT [XGTACX_site7867] — within error, 7.57 ± 0.45
- TTCACTAATAAATACGCACACATATACAGATATATA [CACACA_site4887] — within error, 8.34 ± 0.28
- TGGGTAAACAAACACACACACATATATATATATATA [CACACA_site1992] — higher, 9.35 ± 0.13
- AGTTGTTACGAACATACACACGAACATAGACACGGA [CACACA_site8102] — within error, 8.04 ± 0.73
- ATGAGTGTAATAATATGTACATAACCTACATAATTT [XGTACX_site852] — within error, 8.11 ± 0.42
- AAAAAAAAATATATAAACACACATATTTATATACAC [GTGCAC_negctrl_site545] — within error, 7.67 ± 0.41
- TTATTTAAATAATATGTACACACATTTAAAAAATTA [CACACA_site8912] — within error, 7.83 ± 0.2
- AAGTTATATTTGTGTACACATAATTTTATACTAATA [CACACA_site5553] — higher, 8.82 ± 0.33
- AATATTAAACAAAATAAATATATAAAAAATAAATAA [GTGCAC_negctrl_site93] — within error, 7.58 ± 0.5
- TATTTAATACGGACTCATAAATCTTAATAAAAAAAA [CACACA_negctrl_site434] — within error, 7.61 ± 0.25
- ATTATGTTTCTTTTTTTTTTTAAAGGATGTCTTTTT [CACACA_negctrl_site974] — within error, 7.59 ± 0.78
- TTTAAGCAAAAACACACACACATATATATATATATA [CACACA_site349] — higher, 9.45 ± 0.41
- TATAAATATATATACACACACATATATATTATATAT [CACACA_site596] — within error, 7.61 ± 0.37
- AAAAAATGATAATATACACACTTATGGGAGAGCGCA [CACACA_site5398] — within error, 7.44 ± 0.61
- AAAAAAAAAAGACATGCATACGCTAATTTTTAGTTG [TGCATGCA_site300] — within error, 7.36 ± 0.54
- ATATATTTTTAAAAAAATTAAGAATTTTACATCTCC [CACACA_negctrl_site1450] — within error, 7.59 ± 0.65
- TATTATAATAAGAAGTGTACGTGTTTTTATAAATAA [XGTACX_site575] — within error, 8.17 ± 0.14
- TATAAAAAAAACGAAAAAAAAAAAAAAAATACAGGA [TGCATGCA_negctrl_site585] — within error, 7.85 ± 0.69
- TTATTTATAAACATATGTACTAATACATGATTAACA [XGTACX_site7645] — within error, 7.62 ± 0.35
- GACATATATATAAAATGTACATATATATTTACATAT [XGTACX_site7822] — within error, 7.75 ± 0.33
- TGATAATAAGCATACACACACACACTAGAAAAAAAA [CACACA_site4558] — within error, 8.12 ± 0.63
- TGTTCTTTATTTTATTGTACTTTTAAAATTCCTTTA [XGTACX_site8058] — within error, 8.14 ± 0.46
- AATTAAAAAAAATACACACACACATACCCATATATA [CACACA_site5767] — within error, 8.02 ± 0.18
- AATGATATATTATAAACACACAAAGATGAATATATA [CACACA_site2818] — within error, 7.66 ± 0.56
- TACCCTCGTATATATATACACACTAAAATACAGACA [CACACA_site4154] — within error, 7.92 ± 0.61
- ATTCATTCATATGTTACACACACACCCACCCATAAA [CACACA_site9066] — within error, 8.75 ± 0.62
- AATTTATGTTTTAAAAGTACTTTTCTAATTTATAAA [XGTACX_site1593] — within error, 7.66 ± 0.52
- CTAAAGTAAATTTAAGCACACACAACGAATTTTTAT [CACACA_site8599] — within error, 8.32 ± 0.57
- TATGTACAGACATATACACACCTCTATAATCTATAT [CACACA_site6482] — within error, 7.92 ± 0.5
- TGTTTATACAATATTTGTACATATATTTTTATTTTT [XGTACX_site4104] — within error, 7.8 ± 0.55
- TTTTAAATAAAAAAATTAAATTAAAATATATAAAAA [XGTACX_negctrl_site490] — within error, 7.34 ± 0.64
- CATTTTTACAACGTTGCACACTTCAAAAGGTTTACA [CACACA_site2760] — within error, 8.54 ± 0.5
- GATACTCTCTTTTAATGTACAAAATTTTAAAAATTA [XGTACX_site1781] — within error, 8.03 ± 0.52
- TATAAAAAAAAAAAAAGTACTTAAATATAAATAAAT [XGTACX_site5052] — within error, 7.64 ± 0.31
- GTTCCATGAGTATATACATGCATATATCTAGTTTAT [TGCATGCA_site388] — within error, 8.04 ± 0.86
- ACATTTTTTTTGTGAGTCTTTGCGGCATCAAAATTT [XGTACX_negctrl_site348] — within error, 7.965 ± 0.049
- AAAAAAGAAAAAAACTGTACATGATAAATATTTATT [XGTACX_site7270] — within error, 7.63 ± 0.73
- TTATGAAGCAGACATGCATGTTATGGCTTAAATAAT [TGCATGCA_site492] — within error, 7.74 ± 0.86
- TCCCTTTGTATATATATATAAATATATATATATATA [CACACA_negctrl_site157] — higher, 8.91 ± 0.57
- AGATTATATAAAAAAGTGCATATTTTCATTTTTTTT [GTGCAC_site9448] — higher, 9.07 ± 0.13
- TTTATCGAATATAATAGTACATAAAAAAAAAAAAAA [XGTACX_site1734] — within error, 8.02 ± 0.6
- CATTAAAATGGTAAATGTACATATCCATCTTCTCAC [XGTACX_site4636] — within error, 7.72 ± 0.44
- AGTATAAAAATAAGCACACACACAAATATATATTTA [CACACA_site923] — within error, 8.21 ± 0.37
- ATAATATAAATATTAACACACATCCTTTTATGTATA [CACACA_site6685] — within error, 7.67 ± 0.63
- TTTCTTCTGCATTATGCACACTATAATTCGTTAAAA [CACACA_site5568] — higher, 10.7 ± 0.36
- TTTTCTTTTACAAAGGGTACATAATTTAAATTCATA [XGTACX_site3876] — within error, 7.74 ± 0.4
- TATATGCACTTAATATGTACACAAAAAAAAAAAAAA [XGTACX_site6199] — higher, 9.87 ± 0.8
- CTTATATTAAAAACTTGTACACATGTTAAGAATTTT [XGTACX_site5857] — within error, 7.57 ± 0.33
- TTTATATATTATACATGTACATATTTATTTATATAA [XGTACX_site3474] — within error, 7.86 ± 0.46
- AAATAAGCATATACAAACATGCATACATATAAATAA [CACACA_negctrl_site246] — within error, 7.64 ± 0.59
- AAAAAAAAAAAATCATGTACTTATTTTTCATTGTTG [XGTACX_site1542] — within error, 7.53 ± 0.17
- ATACATATATATATTCTACACACTTATAATATAATA [CACACA_site8782] — within error, 8.06 ± 0.49
- GTAAAAGTTAAAAAAACATGCAAAATTTAAAAAAAA [TGCATGCA_site637] — within error, 7.91 ± 0.94
- ACTATATTTGCCCTTTTAATCAGAACAAAAAAAAAA [CACACA_negctrl_site1051] — higher, 8.74 ± 0.13
- ATTATATTCCAAGTTTGTACATATATATAAAAGTAT [XGTACX_site1631] — within error, 7.98 ± 0.48
- TTCTTTTCAGAAGGAAAGAATTATAACATATCATAA [XGTACX_negctrl_site548] — within error, 7.47 ± 0.3
- ATATTATGTGAAGAACGTACAAATTTTTACACTATA [XGTACX_site1485] — within error, 7.86 ± 0.63
- TATTTTGCTCATCCATGTACACATAGATATATTTTA [XGTACX_site8244] — within error, 8.09 ± 0.51
- CTATAAATAACAGAAAGTACATATACATGGATATAT [XGTACX_site3317] — within error, 7.75 ± 0.72
